# Screen size: about 48,000 compounds; about 450 (0.94%) were called active. Not shown: some 19% with an inconclusive outcome. Calls follow the shape of the dose curve; as a rule, active = well fitted inhibition curve with a large enough effect; inconclusive = small, poorly fitted or top-dose-only effect; inactive = no such curve, though single readings can be large or run the other way. The list shows a part of the results.
# Assay: Primary qHTS for Identification of Small Molecule Inhibitors of Huntingtin Promoter Activity; also: nearly all actives have a fitted effect of over 50% in size
# Conditions: HEK293 HTT promoter firefly luciferase reporter (activity 0% = vehicle and -100% = no light), 24 h; series mostly up to 57.5 µM; activity change, negative = inhibition: at the top concentration
# Outline: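 Quantitative HTS used concentration series of up to 57.5 uM final on HEK293 luciferase reporter cells, 24 h at 37 degrees C. Readout was Dual-Glo firefly luminescence.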
# Potency is read from the fitted curve at half-maximal effect.
SMILES,"activity change, negative = inhibition",Potency
Cc1ccc(CNC(=O)CSc2ncc3c(n2)-c2cc(Cl)ccc2N(C)S3(=O)=O)cc1,inactive: -10.5%,–
COc1nc(C)nc(Cl)c1NC1=NCCN1,inactive,–
COc1ccc(-n2ncc3c(NCCCOC(C)C)ncnc32)cc1,inactive: -1.65%,–
CCCCNC(=O)C1CCCN(S(=O)(=O)CCC)C1 (stereo not given),inactive: -5.52%,–
O=C(CCc1nc(CN2CCN(S(=O)(=O)c3ccc(Br)cc3)CC2)no1)N1CCCCC1,inactive: -25%,–
CCOc1ccccc1C1CC(=O)Nc2c1c(=O)n(C)c1ncnn21 (stereo not given),inactive: -1.95%,–
COc1cc2cc(CNc3ccccc3)c(=O)n(CC(=O)Nc3cccc(Cl)c3C)c2cc1OC,inactive: -12.1%,–
CO/N=C(/C(=O)N[C@@H]1C(=O)N2C(C(=O)OCOC(=O)C(C)(C)C)=C(C)CS[C@H]12)c1csc(N)n1,inactive: 1.13%,–
Cc1ccc(NC(=O)c2ccc(CN3CCN(C)CC3)cc2)cc1Nc1nc(-c2cccnc2)cs1,inactive: -1.31%,–
COc1cc(NC(=O)Cn2c(=O)n(CC3CCC(C(=O)NCCc4ccccc4)CC3)c(=O)c3ccccc32)cc(OC)c1 (stereo not given),inactive: -8.95%,–
OCCCc1ccccc1,inactive: -3.8%,–
CCc1ccc(C(=O)c2cn(CC(=O)Nc3ccc4c(c3)OCCO4)c3ccc(F)cc3c2=O)cc1,inactive: -17.1%,–
CCCCN(CC)CCCNC(=O)c1c(C)oc2ncnc(N3CCOCC3)c12,inactive: -8.73%,–
CCc1nn2c(=O)cc(COC(=O)c3cccc(NC(=O)CCc4ccccc4)c3)nc2s1,inactive: -0.72%,–
CCn1cc(/C=C(\NC(=O)c2ccc(OC)cc2)C(=O)NCCCn2ccnc2)c2ccccc21,inactive: -0.475%,–
COc1ccccc1CNC(=O)C1CCN(c2nc3ccc(Cl)cc3[nH]2)CC1,inactive: 2.51%,–
CCCCc1ccc(-n2nc3cc(C)c(NC(=O)c4ccc(C#N)cc4F)cc3n2)cc1,inactive: -8.85%,–
COc1cc2c(=O)n(CCC(=O)NCC3CCCO3)c(=O)n(CC(=O)Nc3ccccc3C)c2cc1OC (stereo not given),inactive: -13.6%,–
CCc1nn(CC(=O)NCCc2ccc(OC)cc2OC)c(=O)c2cc3occc3n12,inactive: -18.2%,–
COC(=O)c1cc(-c2ccc(C)cc2)c2c(=O)n(C)c(=O)n(C)c2n1,inactive: -24.9%,–

SMILES,"activity change, negative = inhibition",Potency
Cc1nc(-c2ccc(F)cc2)sc1CCNC(=O)C(=O)Nc1ccc2c(c1)OCCO2,inactive: -19.8%,–
OCCN(CCO)c1ncnc2c1cnn2-c1ccc(F)cc1,inactive: 44.5%,–
COc1ccccc1C(=O)Oc1ccc(C(c2c(C)[nH][nH]c2=O)c2c(C)[nH][nH]c2=O)cc1,inactive: 0.781% [at 11.5 µM],–
COc1cccc(CNC(=O)c2cc(S(=O)(=O)N3CCCCC3)c[nH]2)c1,inactive: -9.92%,–
COc1ccc2oc(=O)c(C(=O)N3CCN(c4ccc(C)cc4)CC3)cc2c1,inactive: 9.79%,–
COc1ccc(CC(=O)Nc2ccc(-c3nc4ccccc4s3)c(C)c2)cc1OC,inactive: -32.1%,–
Cc1csc2nc(COC(=O)c3ccccc3NC(=O)c3ccc(C(C)(C)C)cc3)cc(=O)n12,inactive: -23.3%,–
O=C(CCCn1c(=O)c2cccn2c2ccccc21)NCCc1ccc(Cl)cc1,inactive: -12.4%,–
Cc1ccc(S(=O)(=O)NC(=O)NN2CC3CCCC3C2)cc1 (stereo not given),inactive,–
CCOc1cccc2sc(N(Cc3cccnc3)C(=O)c3ccc(C#N)cc3)nc12,inactive: -22.8%,–
Cc1c(CC(=O)NCc2ccc(F)cc2)c(=O)oc2cc(O)c(Cl)cc12,inactive: -9.45%,–
COc1ccc(NC(=O)CC2NCCNC2=O)c(OC)c1 (stereo not given),inactive: -18.7%,–
Cc1cc(C)n(-c2nc3ccccc3nc2N2CCN(c3cccc(C(F)(F)F)c3)CC2)n1,inactive: -3.74%,–
Cc1ccc(-n2c(SCc3ccccc3)nc3c([nH]c4ccccc43)c2=O)cc1,inactive: -9.77%,–
COc1ccc(CNC(=O)c2ccc3nc(-c4ccc(F)cc4)c(-c4ccc(F)cc4)nc3c2)cc1,inactive: -4.23%,–
CCC1(C)Cc2c(sc3nc(SC)n(-c4ccc(C)cc4)c(=O)c23)CO1 (stereo not given),inactive: -16.4%,–
Cc1nnc(NC(=O)c2ccccc2)s1,inactive: 62.4%,–
O=C(Nc1ccc(-c2nc3cc(Cl)ccc3o2)cc1)c1cc2ccccc2o1,inactive: -12.3%,–
Cc1cc(NC(=O)CCNS(=O)(=O)c2cccc3nsnc23)ccc1Br,inactive: -27.5%,–
Cc1ccc(NC(=O)c2ccccc2Br)c(C(=O)c2ccccc2)c1,inactive: -23.6%,–

SMILES,"activity change, negative = inhibition",Potency
CC1CCN(c2nc3ccc(C(=O)NCc4ccccc4)cc3s2)CC1,–,active: 112 nM
COc1ccc(Cn2c(SCc3ccc(C(=O)NC(C)c4ccccc4)cc3)nc3cccnc32)cc1 (stereo not given),inactive: -12.3%,–
CCOC(=O)CNC(=O)N1CCN(c2nnc(C)c3c(C)n(-c4ccc(Cl)cc4)nc23)CC1,inactive: -15.8%,–
CCc1ccc(S(=O)(=O)c2nnn3c2nc(Nc2ccc(NC(C)=O)cc2)c2sccc23)cc1,inactive: -4.05%,–
O=C(Nc1ccc(Cl)cc1)C(NS(=O)(=O)c1cccs1)c1ccccc1 (stereo not given),inactive: -20.6%,–
Cc1cccc(OCC(=O)Nc2nnc(S(=O)(=O)N3CCc4ccccc43)s2)c1,inactive: -15.3%,–
Cc1cccc(NC(=O)C(=O)NCCc2csc(-c3ccc(F)cc3)n2)c1C,inactive: -27.8%,–
CCN(C(=O)c1cn(CC)c(=O)c2cc(OC)c(OC)cc12)c1ccccc1F,inactive: -8.42%,–
COc1ccc(CCC(=O)NC2CC(=O)N(c3ccc(OC)cc3)C2)cc1 (stereo not given),inactive: -6.23%,–
Cc1cc(N2CCCCC2)nc2ccc(NC(=O)CCC(=O)N3CCN(c4ccccc4)CC3)cc12,inactive: -15.1%,–
COc1cc(C(=O)Nc2ccccc2-c2nc(-c3ccc(C)cc3)no2)cc(OC)c1OC,inactive: 1.96%,–
COc1ccc(NC(=O)CN2C(=O)c3cccnc3Sc3ccccc32)cc1OC,inactive: 8.97%,–
Cc1cccc(N2CCN(C(=O)c3ccc(Nc4nc5ccccc5n5nnnc45)cc3)CC2)c1C,inactive: 16.4%,–
CCOC(=O)c1ccc(NC(=O)C2=C(C)Nc3nc(CCCO)nn3C2c2ccc(OC)cc2)cc1 (stereo not given),inactive: -17%,–
CC1=C(C(=O)Nc2cc(Cl)ccc2C)C(c2cccs2)n2ncnc2N1 (stereo not given),inactive: -2.12%,–
CCN1CCN(C(=O)N[C@H](C(=O)N[C@@H]2C(=O)N3C(C(=O)O)=C(CSc4nnnn4C)CS[C@@H]23)c2ccc(O)cc2)C(=O)C1=O,inactive: 1.19% [at 19.1 µM],–
COc1ccc(CCNC(=O)C(C)n2c(=O)cc(-c3ccccc3)c3c(C)nn(C)c32)cc1OC (stereo not given),inactive: -1.49%,–
CCSc1nc(-c2ccccc2F)nc2c1Cc1c(CO)cnc(C)c1O2,inactive: -13.9%,–
COc1cccc(N2CCN(C(=O)c3nn(C)c4c3CSc3ccc(C)cc3-4)CC2)c1,inactive: -15.3%,–
CCC(=O)N1CCc2cc(CNC(=O)c3ccc(F)cc3)ccc21,inactive: 21.2%,–
